Results reported in US5814467A, “APO AI polypeptides, diagnostic methods and systems for quantifying APO AI, and therapeutic methods” (The Scripps Research Institute, priority 1994, dated 1998).
“Also recorded” adds a separate entry of the source. At least one peptide structure holds a part that was inferred or is arguable (an end, a ring closure or a residue). Some compounds share one wording; it may come from a single statement. Residues, ends and D or L forms follow the SMILES beside them.

Key:
Set-up in all cases: species or system mouse
[1] = system: MAB AI-4; test: Competitive RIA, MAB AI-4 binding to Apo AI/HDL-coated wells; details: FIG. 3 and FIG. 4
Experimental: The immunoreactivity of MAB AI-4 for native Apo AI/HDL and various synthetic polypeptides was examined by a competitive RIA performed as follows:
(§1) One hundred μl of PBS (0.15M NaCl, 0.01M NaPO4, pH 7.2) containing 10 μg/ml Apo AI/HDL were admixed to the wells of microtiter plates. The plates were maintained for 1 hour at 20° C. on a rotating platform to allow the Apo AI/HDL to adhere to the wells and form solid supports. After aspirating excess liquid from the wells, 200 μl of block solution (3% BSA, 3% NGS in PBS) was admixed to each well, and the wells were maintained for 30 minutes at 20° C. on a rotating platform. Subsequently, the blocking solution was removed by aspiration, and the wells were washed 3 times with SPRIA buffer.
(§2) To each well was then admixed first with 50 μl of PBS containing 3% BSA and various concentrations of competitor antigen, i.e., Apo AI/HDL peptide, and, second, 50 μl of MAB AI-4 in the form of clarified ascites diluted 1:11.25×10^5 in PBS containing 3% BSA to form competitive immunoreaction admixtures. In control wells, either competing antigen or antibody was replaced by PBS containing 3% BSA.
(§3) The immunoreaction admixtures were maintained about 16 hours at 4° C. on a rotating platform to permit formation of solid-phase immunoreaction products. After washing the wells as previously described, 100 μl of ^125 I-labeled goat anti-mouse Ig (^125 I-goat anti-mouse Ig diluted to 2×10^5 trichloracetic acid precipitable disintegrations per minute per 100 μl in PBS containing 3% BSA) were admixed to each well. The labeling immunoreaction admixtures so formed were maintained for 4 hours at 4° C. on a rotating platform. Subsequently, the wells were washed with SPRIA buffer as previously described, and the amount of ^125 I-labeled solid-phase immunoreaction product formed was determined in a gamma counter.
The ability of MAB AI-4 to immunoreact with Apo AI/HDL was compared by using Apo AI/HDL and various synthetic peptides as competitors in the above-described RIA. B/Bo represents corrected CPMs which are plotted against increasing concentrations of competition in μg/ml. B/Bo values are determined in the following formula: [formula] where 0% CPM is a measure of non-specific background based on CPM obtained in RIAs where wells coated with Apo AI/HDL are reacted with the labeled secondary antibody in the absence of primary antibody and competitor, and where 100% CPM is a measure of the maximum non-competed binding of primary antibody to the substrate coated to the wells. The more efficiently a competitor binds to the primary antibody, the lower the B/Bo values.

[2] = system: monoclonal antibody AI-11; test: Competition ELISA, AI-11 binding to AI96-111-coated wells; details: FIG. 2; competitor from 1 mg/ml, serial 2-fold dilutions
Experimental: To determine the relative effectiveness of AI-11 binding to Apo AI synthetic polypeptides, a competition ELISA was performed with AI 96-111 as the test synthetic polypeptide in comparison to Apo AI-containing serum and purified Apo AI/HDL. Microtiter plates were coated with AI 96-111 as described hereinbefore. After the drying step of the assay described hereinbefore, 50 μl of a fluid sample (i.e., an Apo AI-containing fluid sample) or standard (i.e., an Apo AI polypeptide) to be assayed were admixed into the polypeptide AI96-111-coated well simultaneously with 50 μl of HRPO-conjugated AI-11 antibody to form an immunoreaction admixture. In the assay described herein, 3 competitors were tested for their ability to compete for binding of AI-11 to the AI 96-111 polypeptide coated over a range of dilutions. The polypeptide AI 96-111 was added in separate coated wells at a starting concentration of 1 mg/ml and diluted 2-fold serially 6 times down to a final concentration of 0.0156 mg/ml. Serum samples as described in Example 2 were added at a starting dilution of 1:10 and diluted 2-fold serially 6 times down to a final dilution of […]. Apo AI/HDL as described in Example 2 was added at a starting concentration of 1 mg/ml and diluted 2-fold 5 times down to a final concentration of 0.031 mg/ml. The plate was then incubated for 30 minutes at room temperature. […]

[3] = system: MAB AI-11; test: Competitive RIA, MAB AI-11 binding to Apo AI/HDL-coated wells; details: FIG. 5 and FIG. 6
Experimental: as §1, §2, §3
The immunoreactivity of MAB AI-11 for native Apo AI/HDL and various synthetic polypeptides was examined by a competitive RIA as described in Example 10A. […] Other peptides were evaluated for their ability to immunoreact with AI-1l MAE in competitive RIAs described herein.

[4] = system: monoclonal antibody AI-11; test: Solid-phase polypeptide direct binding ELISA; details: peptide coated at 50 μg/ml; 0.5 μg/ml HRP-conjugated AI-11
Experimental: Apo AI polypeptides AI84-111, AI85-111, AI90-111, AI93-111, AI94-111, AI-94-125, AI96-111, AI99-111, and AI99-114 were tested for immunoreactivity with monoclonal antibody AI-11 in a direct binding ELISA. In the assay, 50 μg/ml of each polypeptide was dissolved in PBS to form a peptide coating solution, of which 150 μl was admixed into the wells of a flexible polyvinyl chloride microtiter plate (Immulon). The wells were then maintained about 16 to 20 at 4° C. to permit the peptide to absorb onto (coat) the walls of the wells. After removing the peptide coating solution by shaking, the wells were washed once with 350 μl of rinsing buffer (PBS containing 1 g/l BSA, 0.5 ml/l Tween 20, and 2 μl/1 aprotinin). Excess protein binding sites were blocked by admixing 200 μl of blocking buffer (PBS containing 3% BSA) into each well, maintaining the wells for 1 hour at 37° C., removing the blocking buffer by shaking, and then washing the wells 3 times as previously described. The plate was then dried for 1 hour at 37° C. followed by addition of 100 μl of PBS containing 0.5 μg/ml horseradish peroxidase conjugated AI-11 antibody to form a solid-liquid phase immunoreaction admixture. The resulting solid-liquid phase immunoreaction admixture was maintained at 20° C. for 1 hour to permit formation of a solid-phase polypeptide-containing immunoreaction product. The wells were then washed 3 times with rinsing buffer to remove unbound antibody.
The amount of immunoreaction product present in the solid phase was then determined by admixing two hundred microliters of OPD substrate into each well to form a developing-reaction admixture. The admixture was maintained for 30 minutes at about 20° C. Subsequently, 50 μl of 4N H2 SO4 were admixed into each well to stop the developing-reaction, and the resulting solution was assayed for absorbance at 450 nanometers using a microtiter plate reader (Dynatech) to detect the amount of formed immunoreaction product.

CC(C)C[C@H](NC(=O)[C@H](Cc1ccc(O)cc1)NC(=O)[C@@H]1CCCN1C(=O)[C@H](CCC(N)=O)NC(=O)[C@@H](NC(=O)[C@@H](N)CCCCN)C(C)C)C(=O)N[C@@H](CC(=O)O)C(=O)N[C@@H](CC(=O)O)C(=O)N[C@@H](Cc1ccccc1)C(=O)N[C@@H](CCC(N)=O)C(=O)N[C@@H](CCCCN)C(=O)N[C@@H](CCCCN)C(=O)N[C@@H](Cc1c[nH]c2ccccc12)C(=O)N[C@@H](CCC(N)=O)C(=O)N[C@@H](CCC(=O)O)C(=O)N[C@@H](CCC(=O)O)C(=O)O [AI96-111, KVQPYLDDFQKKWQEE] (H-KVQPYLDDFQKKWQEE-OH)
immunoreactivity with MAB AI-4, competition of binding to Apo AI/HDL [1]: not immunoreactive; also recorded: not competitive inhibitors | competition for binding of AI-11 to coated AI96-111 [2]: immunoreacts; also recorded: competitively inhibit | immunoreactivity with MAB AI-11, competition of binding to Apo AI/HDL [3]: competitive inhibitors; also recorded: immunoreacted; also recorded: competitively inhibit; also recorded: immunologically mimicked | immunoreactivity with monoclonal antibody AI-11 in direct binding ELISA [4]: specifically immunoreactive
